B1: PhoQ; a variant is named by its letters at X, in order, P23837 (parent)
chain: MKKLLRLFFPLSLRVRFLLATAAVVLVLSLAYGMVALIGYSVSFDKTTFRLLRGESNLFYTLAKWENNKLHVELPENIDKQSPTMTLIYDENGQLLWAQRDVPWLMKMIQPDWLKSNGFHEIEADVNDTSLLLSGDHSIQQQLQEVREDDDDAEMTHSVAVNVYPATSRMPKLTIVVVDTIPVELKSSYMVWSWFIYVLSANLLLVIPLLWVAAWWSLRPIEALAKEVRELEEHNRELLNPATTRELTSLVRNLNRLLKSERERYDKYRTTLTDLTHSLKTPLXXLQXXLRSLRSEKMSVSDAEPVMLEQISRISQQIGYYLHRASMRGGTLLSRELHPVAPLLDNLTSALNKVYQRKGVNISLDISPEISFVGEQNDFVEVMGNVLDNACKYCLEFVEISARQTDEHLYIVVEDDGPGIPLSKREVIFDRGQRVDTLRPGQGVGLAVAREITEQYEGKIVAGESMLGGARMEVIFGRQHSAPKDE

Some of the results follow. Some results are limits rather than exact numbers.

In this assay the parent is B1. Description: enrichment ratio after two sorts for PhoP signalling (ratio (wild type AVST 3.29)); higher = more functional. The following applies: with PhoP (E. coli).
For FQWD, the enrichment ratio was not above 0.25. Under WYCA stands not above 0.25; under VSAR, not above 0.25; under RGIL, not above 0.25. Under QPQL stands not above 0.25; under RWLA, not above 0.25; under GNPV, not above 0.25. With IKYR, the enrichment ratio was not above 0.25. Under VYGV stands not above 0.25. Consider ICYA, for which the enrichment ratio is not above 0.25. Next, TFCQ: not above 0.25; MNRI: not above 0.25.

As to DRLM, the enrichment ratio was not above 0.25.

For NCPW, the enrichment ratio was not above 0.25.

Regarding AWYL, the enrichment ratio was not above 0.25. Next, EDIY: not above 0.25; MRII: not above 0.25; DRRN: not above 0.25.

In the case of PNME, the enrichment ratio is not above 0.25.

In the case of MPPL, the enrichment ratio is not above 0.25. Next, FYTP: not above 0.25; ICSY: not above 0.25; NDST: not above 0.25. Take RMSL: the enrichment ratio is not above 0.25. As for AWLF, the enrichment ratio was not above 0.25. Regarding PMVS, the enrichment ratio is not above 0.25. Next, GLDS: not above 0.25.

As to LINS, the enrichment ratio is not above 0.25. Under IVIS stands not above 0.25; under HGMP, not above 0.25.

With YNGN, the enrichment ratio is not above 0.25. Next, GGAK: not above 0.25; AHRA: not above 0.25. Under DKTI stands not above 0.25; under RSRA, not above 0.25; under FNLT, not above 0.25. Under KTRT stands not above 0.25. As to TLYI, the enrichment ratio was found to be 0.826.

Turning to PSLW, the enrichment ratio is not above 0.25. Under EIHK stands not above 0.25. Under TENC stands 8.76. Under KPFN stands not above 0.25; under ANEK, not above 0.25. Turning to WKQE, the enrichment ratio is not above 0.25. Next, GRLS: not above 0.25. Consider DQML, for which the enrichment ratio was not above 0.25. Turning to PDKP, the enrichment ratio is not above 0.25. Consider SVGK, for which the enrichment ratio was 4.33. For the variant PAVA, the enrichment ratio was not above 0.25.

With DIRL, the enrichment ratio turned out to be 0.731. Next, PYHN: not above 0.25. Under LNRC stands not above 0.25. Next, SKDY: not above 0.25. On to DVSY, for which the enrichment ratio is not above 0.25. For the variant GDWP, the enrichment ratio was not above 0.25.

Regarding PIGV, the enrichment ratio was not above 0.25. Next, DRAN: not above 0.25. Next, MAGP: not above 0.25; RAAW: not above 0.25; FRVY: not above 0.25.

Regarding PCHP, the enrichment ratio is not above 0.25. Under KKHV stands not above 0.25; under GCLN, 11.5. On to LPRE, for which the enrichment ratio was not above 0.25. Under PHGW stands not above 0.25; under RVCC, not above 0.25; under PKQP, not above 0.25.

Consider RQEM, for which the enrichment ratio was not above 0.25. Next, GNKA: not above 0.25; EALC: not above 0.25. Next, VFRT: not above 0.25. Next, GHRY: not above 0.25; QYLI: not above 0.25. For the variant DVVI, the enrichment ratio is not above 0.25.

In the case of WSTM, the enrichment ratio was not above 0.25. In the case of RKCV, the enrichment ratio is not above 0.25.

Regarding LMHG, the enrichment ratio was not above 0.25. Under QKTN stands not above 0.25. For the variant LEIM, the enrichment ratio was not above 0.25. Under VDVC stands 0.855; under PNCC, not above 0.25; under EFFC, not above 0.25. Next, NSKC: 0.925. Next, ADEM: not above 0.25.

For the variant NAWW, the enrichment ratio was not above 0.25.

For the variant WGYR, the enrichment ratio was not above 0.25. Next, YFDV: not above 0.25; RWLS: not above 0.25; KRGK: not above 0.25. Under HAFP stands not above 0.25. Next, KMVK: not above 0.25; SILV: 2.22. Consider EGLL, for which the enrichment ratio came to 1.68. Under NHCY stands not above 0.25; under APSW, not above 0.25. Under QLKN stands not above 0.25. Next, DRWC: not above 0.25; IREK: not above 0.25; EDIH: not above 0.25.

In the case of NGLL, the enrichment ratio worked out at 3.87. Next, HPQN: not above 0.25. For the variant MITV, the enrichment ratio was found to be 17.2. Under HTCW stands not above 0.25.

Regarding NATY, the enrichment ratio was not above 0.25. Next, LWRN: not above 0.25. Under PRFF stands not above 0.25; under CTYM, not above 0.25.

As to YDCE, the enrichment ratio was not above 0.25. Next, RHGL: not above 0.25; KRNK: not above 0.25. Turning to STNI, the enrichment ratio is 0.519. As to QFPV, the enrichment ratio is not above 0.25. Under ERTE stands not above 0.25. Next, SCWW: not above 0.25; IPHS: not above 0.25; EDRM: not above 0.25.

Consider KRFN, for which the enrichment ratio is not above 0.25. Under PPAD stands not above 0.25; under QRPL, not above 0.25; under IHEY, not above 0.25. Regarding PQSW, the enrichment ratio is not above 0.25.

NTAN: the enrichment ratio is not above 0.25.

For NKHP, the enrichment ratio was not above 0.25. Under QQNI stands 8.84; under NILF, not above 0.25; under RKVT, not above 0.25. Turning to ANTM, the enrichment ratio came to 44. With WCSF, the enrichment ratio was not above 0.25.

Turning to VISH, the enrichment ratio is not above 0.25. Under CRLL stands not above 0.25; under NSFR, not above 0.25; under VQHE, not above 0.25.

For DNWH, the enrichment ratio is not above 0.25. In the case of ACRK, the enrichment ratio is not above 0.25. For the variant EPVK, the enrichment ratio was not above 0.25. Turning to VNMM, the enrichment ratio was found to be 1.16.

Consider KSHM, for which the enrichment ratio is not above 0.25.

For PLGK, the enrichment ratio is not above 0.25. Next, MQKC: not above 0.25; MIYW: not above 0.25; DSSC: not above 0.25. As for VYWP, the enrichment ratio is not above 0.25.

For RLGA, the enrichment ratio is not above 0.25. Next, YGRQ: not above 0.25; TAFI: 0.754.

Take LPGN: the enrichment ratio is not above 0.25.

Turning to THGW, the enrichment ratio was not above 0.25.

For LLGE, the enrichment ratio is not above 0.25. Under DPSS stands not above 0.25. Regarding TRDH, the enrichment ratio was not above 0.25.

On to AHQI, for which the enrichment ratio was not above 0.25.

For WNTD, the enrichment ratio was not above 0.25. For the variant MGEI, the enrichment ratio is not above 0.25.

Source of the values: a collection of fitness landscapes (doi:10.1126/science.1257360).
